# Laboratory results published in the supplement of paper PMC4967469.
# Lines with a small IC50 respond at low doses; fits outside the tested doses are given as limits. AUC, from the same fit, is the share of area under the viability curve across the 256-fold dose range; it is 1 without any effect and falls as sensitivity rises. For part of these data: An inferred top dose was derived from the fitted curves, not read from the paper. For part of these data: An entry number marks a drug with two screens in the source, which often give different values.
# Legend:
# Experiment in all cases: Viability of human cancer cell lines after 72 h of drug (GDSC screen)
# [1] = compound: C[C@@H](N)c1ccc(C(=O)Nc2ccnc3[nH]ccc23)cc1 [Y-39983]; conditions: top dose 20 µM; top dose inferred
# Procedure: (§1)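 Human cancer cell lines in 384-well plates, medium with 10% serum, drug for 72 h over a 256-fold dose range (nine 2-fold or five 4-fold steps up to the top dose). Adherent lines were fixed and stained with the nucleic acid dye Syto60, suspension lines read with resazurin; signal relative to control wells, capped at 0 and 100%. One two-parameter sigmoid per drug and line, fitted in a mixed model over all curves with the slope shared within a line.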
# [2] = compound: CN1CCN(CCOc2cc(OC3CCOCC3)c3c(Nc4c(Cl)ccc5c4OCO5)ncnc3c2)CC1 [AZD-0530]; conditions: top dose 2 µM
# Procedure: as §1
# [3] = compound: NC(=O)Nc1sc(-c2ccc(F)cc2)cc1C(N)=O [TPCA-1]; conditions: top dose 20 µM
# Procedure: as §1
# [4] = compound: C/C(=C\c1csc(C)n1)[C@@H]1C[C@@H]2O[C@]2(C)CCC[C@H](C)[C@H](O)[C@@H](C)C(=O)C(C)(C)[C@@H](O)CC(=O)O1 [Epothilone B]; conditions: top dose 0.032 µM; top dose inferred
# Procedure: as §1
# [5] = compound: CC(C)CC(=O)Nc1n[nH]c2c1CN(C(=O)C1CCN(C)CC1)C2(C)C [PHA-793887]; conditions: top dose 10.24 µM
# Procedure: as §1
# [6] = compound: CCCS(=O)(=O)Nc1ccc(F)c(C(=O)c2c[nH]c3ncc(Cl)cc23)c1F [PLX4720]; conditions: top dose 10 µM
# Procedure: as §1
# [7] = compound: CCc1nc(N)nc(N)c1-c1ccc(Cl)cc1 [Pyrimethamine]; conditions: top dose 20 µM; top dose inferred
# Procedure: as §1
# [8] = screen: GDSC drug entry 1371, top dose inferred
Cell Line,AUC [1],IC50 [1],AUC [2],IC50 [2],AUC [3],IC50 [3],AUC [4],IC50 [4],AUC [5],IC50 [5],AUC ([6]; screen: GDSC drug entry 1036),IC50 ([6]; screen: GDSC drug entry 1036),"AUC [6, 8]","IC50 [6, 8]",AUC [7],IC50 [7]
"NCI-H1304 (small cell lung carcinoma, suspension)",0.981,> 20 µM,0.984,> 2 µM,0.987,> 20 µM,0.788,0.0152 µM,0.865,> 10.2 µM,0.937,> 10 µM,0.986,> 10 µM,0.904,> 20 µM
"NCI-H1355 (lung adenocarcinoma, adherent)",0.978,> 20 µM,0.916,> 2 µM,0.961,> 20 µM,0.423,0.00112 µM,0.977,> 10.2 µM,0.969,> 10 µM,0.971,> 10 µM,0.953,> 20 µM
"NCI-H1395 (lung adenocarcinoma, adherent)",0.953,> 20 µM,0.927,> 2 µM,0.931,> 20 µM,0.932,> 0.032 µM,0.888,> 10.2 µM,0.978,> 10 µM,0.966,> 10 µM,0.854,> 20 µM
"NCI-H1417 (small cell lung carcinoma, suspension)",0.895,> 20 µM,0.962,> 2 µM,0.903,> 20 µM,0.765,0.0139 µM,0.793,5.68 µM,0.86,> 10 µM,0.888,> 10 µM,0.913,> 20 µM
"NCI-H1581 (large cell lung carcinoma, semi-adherent)",0.978,> 20 µM,0.988,> 2 µM,0.921,> 20 µM,0.887,0.0306 µM,0.789,4.13 µM,,,0.989,> 10 µM,0.973,> 20 µM
"NCI-H1648 (lung adenocarcinoma, adherent)",0.985,> 20 µM,0.64,0.312 µM,0.905,> 20 µM,0.41,0.00111 µM,0.728,2.98 µM,0.853,8.54 µM,0.976,> 10 µM,0.979,> 20 µM
"NCI-H1666 (lung adenocarcinoma, semi-adherent)",0.987,> 20 µM,0.981,> 2 µM,0.968,> 20 µM,0.956,> 0.032 µM,0.932,> 10.2 µM,,,0.845,8.26 µM,0.907,> 20 µM
"NCI-H1770 (non-small cell lung carcinoma, suspension)",0.982,> 20 µM,0.992,> 2 µM,0.87,14.8 µM,0.365,0.000895 µM,0.984,> 10.2 µM,0.99,> 10 µM,0.977,> 10 µM,0.939,> 20 µM
"NCI-H1836 (small cell lung carcinoma, suspension)",0.984,> 20 µM,0.975,> 2 µM,0.979,> 20 µM,0.893,> 0.032 µM,0.676,2.1 µM,0.988,> 10 µM,0.91,> 10 µM,0.952,> 20 µM
"NCI-H1838 (lung adenocarcinoma, adherent)",0.968,> 20 µM,0.974,> 2 µM,0.949,> 20 µM,0.979,> 0.032 µM,0.983,> 10.2 µM,0.951,> 10 µM,0.985,> 10 µM,0.975,> 20 µM
"NCI-H1869 (lung squamous cell carcinoma, adherent)",0.944,> 20 µM,0.895,> 2 µM,0.84,16.5 µM,0.907,> 0.032 µM,0.832,7.71 µM,0.82,6.73 µM,0.974,> 10 µM,0.979,> 20 µM
"NCI-H1876 (small cell lung carcinoma, adherent)",0.969,> 20 µM,0.987,> 2 µM,0.888,> 20 µM,0.972,> 0.032 µM,0.704,2.42 µM,0.77,3.84 µM,0.969,> 10 µM,0.966,> 20 µM
"NCI-H1975 (lung adenocarcinoma, adherent)",0.849,18.5 µM,0.871,> 2 µM,0.822,14 µM,0.458,0.00151 µM,0.767,4.36 µM,0.975,> 10 µM,0.927,> 10 µM,0.869,> 20 µM
"NCI-H2141 (small cell lung carcinoma, suspension)",0.99,> 20 µM,0.984,> 2 µM,0.987,> 20 µM,0.774,0.0122 µM,0.926,> 10.2 µM,0.983,> 10 µM,0.99,> 10 µM,0.99,> 20 µM
"NCI-SNU-1 (stomach, suspension)",0.834,13.7 µM,0.944,> 2 µM,0.848,15.6 µM,0.842,0.0237 µM,0.657,1.78 µM,0.957,> 10 µM,0.987,> 10 µM,0.838,14.1 µM
"NCI-SNU-5 (stomach, suspension)",0.989,> 20 µM,0.987,> 2 µM,0.989,> 20 µM,0.89,> 0.032 µM,0.959,> 10.2 µM,0.985,> 10 µM,0.978,> 10 µM,0.954,> 20 µM
